PubChem BioAssay AID1159614 (National Center for Advancing Translational Sciences (NCATS), 2016)
Hit rate of the full screen: of about 45,000 compounds, about 65 (0.1%) were called active. The call rests on the fitted dose curve; in most records, active means well fitted activation curve with a large enough effect; inconclusive means small, poorly fitted or top-dose-only effect; inactive means no such curve, though single readings can be large or run the other way. The list shows a part of the results.

Target: Galactocerebrosidase (Homo sapiens) (UniProt P54803)
UniProt P54803, sequence (P54803 whole entry, looked up): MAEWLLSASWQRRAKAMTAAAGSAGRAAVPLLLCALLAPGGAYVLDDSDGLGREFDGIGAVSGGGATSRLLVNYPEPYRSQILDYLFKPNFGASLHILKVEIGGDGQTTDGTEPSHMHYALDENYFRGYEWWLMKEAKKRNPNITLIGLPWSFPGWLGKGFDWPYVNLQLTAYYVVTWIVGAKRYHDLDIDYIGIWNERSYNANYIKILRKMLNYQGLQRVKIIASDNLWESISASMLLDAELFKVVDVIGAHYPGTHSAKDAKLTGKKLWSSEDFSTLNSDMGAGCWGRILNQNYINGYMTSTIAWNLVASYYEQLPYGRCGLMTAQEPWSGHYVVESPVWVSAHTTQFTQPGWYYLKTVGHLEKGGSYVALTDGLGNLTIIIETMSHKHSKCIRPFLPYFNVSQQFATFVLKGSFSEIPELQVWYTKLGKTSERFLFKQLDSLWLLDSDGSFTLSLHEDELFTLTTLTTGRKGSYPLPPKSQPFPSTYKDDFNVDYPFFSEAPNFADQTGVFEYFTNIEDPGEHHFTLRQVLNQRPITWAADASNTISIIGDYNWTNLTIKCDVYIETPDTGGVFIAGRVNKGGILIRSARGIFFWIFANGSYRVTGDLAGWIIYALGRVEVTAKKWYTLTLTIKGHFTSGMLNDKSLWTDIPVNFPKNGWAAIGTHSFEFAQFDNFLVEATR
Assay: A Novel Cell-Based Assay to Identify Small Molecules for B -Galactocerebrosidase; further: 0% is about no effect; nearly all actives have a fitted effect of over 65% in size
Conditions: 145M-Twi-hGALC-G270D cells (Twitcher mouse brain line with human GALC G270D), HMU-beta-Gal fluorescence, 48 h; series mostly up to 57.5 µM; activation: at the top concentration
Procedure, shortened: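 Mutant human GALC (G270D), stably expressed in a Twitcher mouse brain cell line lacking endogenous GALC, is measured in live-treated cells via 6-hexadecanoylamino-4-methylumbelliferyl-β-galactoside hydrolysis (0.1 mM final, pH 5.2) with fluorescent detection.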

Row | SMILES | activation
1 | Cc1ccc(Cl)cc1N(C)C(=O)c1noc2c1CCCCC2 | inactive: -20.2%
2 | Cc1nn(Cc2noc(C(=O)NCc3cccc(F)c3)n2)c(C)c1Br | inactive: -25.3%
3 | CSCCC(NS(=O)(=O)c1ccc2c(c1)oc(=O)n2C)C(=O)NCc1ccc(F)cc1 (stereo not given) | inactive: -12.8%
4 | COc1ccc(-n2cc(C(=O)N(C)c3cc(C)ccc3OC)c3ccccc3c2=O)cc1 | inactive: -12.8%
5 | COc1ccc(NC(=O)c2sc3nc(C)c(C(=O)Nc4ccc(C)cc4C)c(-c4ccccc4Cl)c3c2N)cc1 | inactive: -12.1%
6 | COc1ccccc1NC(=O)C1=C(C)Nc2nc(SCC(=O)c3ccc(C)cc3)nn2C1c1ccccc1C (stereo not given) | inactive: -18.7%
7 | CCOc1ccccc1CN1CCc2nc(N3CCN(C)CC3)ncc2C1 | inactive: -14.3%
8 | Cc1ccc(NC(=O)CSc2nc(-c3cccs3)nc3cc(=O)[nH]n23)cc1C | inactive: -16.4%
9 | COc1ccc(-c2cn3cccnc3n2)cc1NC(=O)Nc1cc(C)ccc1C | inactive: -14.7%
10 | O=C(NCCc1ccccc1)C1CCN(Cc2cc3ccccc3n2Cc2ccccc2)CC1 | inactive: 1.05%
11 | CCOCCCNc1nc2c(S(=O)(=O)c3ccc(CC)cc3)nnn2c2ccc(Cl)cc12 | inactive: 13.6%
12 | O=C(Cn1ncc2c3ccccc3n(Cc3cccc(Cl)c3)c2c1=O)NCCCN1CCCCC1 | inactive: -15%
13 | Cc1ccc(C)c(N2CCN(S(=O)(=O)c3ccc(-c4cnc(C5CC5)o4)cc3)CC2)c1 | inactive: -13.4%
14 | Cc1ccc(CNC(=O)Cn2c(=O)cc(C)c3c(C)nn(-c4cccc(F)c4)c32)cc1 | inactive: -7.88%
15 | O=C(Nc1ccc(C(=O)N2CCN(c3ccccc3F)CC2)cc1)c1nsc2ccccc12 | inactive: -5.94%
16 | CN1C(C(=O)c2ccccc2)=C(NC(=O)c2ccc(F)cc2)c2ccccc2S1(=O)=O | inactive: -15.1%
17 | COc1ccc(COC(=O)C2=C(C)NC(=O)CC2c2cccc(Cl)c2Cl)cc1 (stereo not given) | inactive: -8.21%
18 | CCOc1ccc(-c2cc(C(=O)NC(C)c3ccccc3)c3ccccc3n2)cc1 (stereo not given) | inactive: -15.9%
19 | COc1ccc([C@@H]2Sc3ccccc3NC(=O)[C@@H]2O)cc1 | inactive: -6.52%
20 | Cc1cccc(C(=O)NC2(C(F)(F)F)N=C(c3ccccc3)N(C3CCCCC3)C2=O)c1 (stereo not given) | inactive: 2.23%
21 | O=C(NCCc1ccc(Cl)cc1)c1ccc2c(c1)nc1n2CCOC1 | inactive: -2.25%
22 | CN(C)CCN(Cc1ccco1)C(=O)c1cc2c(s1)-c1ccccc1OC2 | inactive: -8.66%
23 | COc1ccc(-c2onc(C)c2C)cc1S(=O)(=O)Nc1cccc(C#N)c1 | inactive: -14.4%
24 | CCOC(=O)N1CCc2c(sc3c2c(=O)n(-c2ccc(F)cc2)c(=O)n3CC(=O)c2ccc(Cl)cc2)C1 | inactive: -7.39%
25 | CC(C)C(=O)OCc1cccc(OC(=O)[C@@H]2N3C(=O)[C@@H](NC(=O)Cc4ccccc4)[C@H]3SC2(C)C)c1 | inactive: -10.7%
